According to the RNAGym collection of RNA variant scans (doi:10.7554/elife.90254):
The source gives no read counts; variants with many changes may rest on few reads.

B1: LINE1-mini (parent)
chain: GGCAGAGCUCAACACAGCGUGGCAAAGUGGCUGUGGCUAGACUGCC

Variants of: B1
Test: self-cleavage, relative activity (ratio to wild type); higher = more cleavage; in vitro, sequencing; the parent is a self-cleaving ribozyme

Variant | self-cleavage
G2A A41G G44C | 0.1
C8U G40A G44C | 0.07
A6C A12U A14G C15U U38A A41G G44C | 0.01
G5A A12U C18U G22A G27U | 0.02
C3G A24U G35U | 0.39
C3G G19A G33U | 0.13
U9G C15U A24U A25G G30A C45U | 0.02
U20A A24C G29U A41U | 0.27
A16G G17A G22C A39G | 0.01
A4G G29U A41U | 0.29
G2C C18U G29U C31U U38C G44A | 0.04
A12C G22A G44C | 0.05
A14U A24C U32A G35C | 0
A4G A6C G17C G35C U38G | 0.03
A6G C8A C45U | 1.02
G2A U9C A16U G17A | 0.02
G5U G7U A11G A25C | 0.01
G5A A16U G17C G40A | 0.02
G2A G5C U9G | 0.09
A4G G35A G44U | 0.06
G7U A16C C42U U43A | 0.02
G5C G33C C42A | 0.06
G5A G17U G30A | 0.04
G7A G22A C23G A39U C42A | 0.12

Variant | self-cleavage
C13A C23A C31A | 0.04
G1U G17A A26C A39U | 0.01
G2U G22U C37U U38C | 0.03
C8A G40A U43G | 0.2
C8G C37A C42A C46G | 0.07
G17C G21C U32A C45G | 0.03
A6U C10A G17A C46G | 0.05
G1C A4G G17A | 0.08
C10A C13U G29A | 0.02
G1C C10U C15U U20C G22A G35U | 0.02
G2U U20A G35U | 0.06
C23U U32C G33A | 0.17
A4C A11G C18G G40A | 0.01
G5A U28C G35C G40U | 0.04
C10U A16C C23G G36A | 0
A6U C18A U20G U28C | 0.41
A14U G17U U20C C23G C31U | 0.02
A16U U28C C31U | 0.03
A6C A24U C37A C42U | 0.24
C10A A12C G21A | 0.06
G1A C13G G21U | 0.05
A4G C10U C15U G29A | 0.2
A4G G5U A11U G36A A41U C45G | 0.01
G2A G7C G19U C23A | 0.07

Variant | self-cleavage
G2C C13A A14U A41C | 0.19
A6C U28A C46G | 0.24
G1A A11U G35A | 0
C15U A25U G44U C46U | 0.03
G2U A12C G36U C37G | 0
A14G G30A G40U | 0.04
C8G G19U C31A | 0.03
C8G A12U G21A U28G | 0.09
A12C G30C C37A | 0.02
G7C C15A A26C | 0.09
C3G G19A C37U | 0.32
C15U G21U C23A C45U | 0.18
A6U C18U A25C A41U | 0.02
A25C A26U C31A | 0.01
C3U G7U A16U G27C U28C | 0.08
G35U G36A G44A | 0.09
C3U A6C G17U G36C U43A | 0.1
G5C G19A C37A A41U | 0.08
G5C A6G U9C C18A C23A G36U C45A | 0
A6U U9A C18U G21A U28G | 0.55
U9G G21C C31U C46U | 0.02
C3G U20A C37U C46G | 0.06
G7A C8U G40A | 0.23
G1C G7C U9A G27C G29A | 0.02

Variant | self-cleavage
G7U C15U C18G G29A C31U | 0.11
G7U C15A C18A G21A | 0.08
C3A A4C C46A | 0.34
A11C C18G G27C U28A C37A A39C G40C | 0
G17U G19A U20G U32A A41U | 0.01
G2A A4U G7U A39C | 0.24
G1C C15U G17C G19A G35U G40A | 0.02
C3G A14C C18A | 0.04
G5U A6U C13U G21U | 0.14
A4C A16C G35U C42G | 0.04
G1A G35U C37G C46U | 0.05
G2U A25C C46A | 0.07
A6G C10A A14U | 0.02
C3A U9A A39C | 0.07
C10G G27C G40U | 0.02
C8G C18G G19U | 0.03
A11C A12U G17A A26C U32A G35U G36C | 0.01
A4C C13A A14U C18A | 0.04
G7U U9A G21C G30U C31A | 0.04
C8U U28C G40U U43G | 0.23
G7C G17A A24U | 0.08
G21U C23G A25U | 1.43
C13U G36A C46U | 0.18
A16C G29A G30C | 0.05

Variant | self-cleavage
G2A G17C C18G G27C | 0.07
C31U C37U G44U | 0.01
G2A A12C C46A | 0.05
C10A A24G C31G | 0.06
A11U G21C C23U G29C G30C G40U | 0
C3G A11U C18A | 0.02
C10G C13U U38C A41U | 0.01
C13G A24U G35U U43A | 0.05
G1U C37U U38A | 0.25
C8A A11C U43C C46U | 0.01
G17U G21A G29A | 0.84
A12U G19C C23A U38G G40U | 0.01
G5U C37G G44A | 0.08
A11U C13U G35U A39G C45A | 0.01
G7C C15U G29U G44A | 0.07
G2U C13U U20C | 0.03
A6C C10A C46U | 0.09
G5C A11G G30C C31A U43A C46G | 0.01
A4G C18A G29U | 0.3
G2A G22U U32G | 0.06
A4G C13U G30C C37U G40U | 0.03
A4G G27U G29C | 0.04
A4G A14U G19U C42U | 0
A6C G7A U38G | 0.01

Variant | self-cleavage
C15G G30U C37U | 0.06
A11C G19C G29A | 0.01
U9A G36U G40A | 0.03
G5A A14G A16U C23U U28C G35U | 0.1
A6G A26G G33C U43C | 0.02
A11U A14C G19A | 0.01
A11G A25C G30U | 0.08
G29U U38A C45A | 0.09
G2A A16U C31G | 0.05
C15A C37G G40A C42U | 0.04
C10A C23A U34A | 0
A6G A26G G44U | 0.02
C10A G21C G22A G30C | 0.07
G2C G22U G33C | 0.04
G5C C31U A39G | 0.02
C3G C13U U38A C42U | 0.36
C10A G22U C31G | 0.05
G1A G7A U9G G17U U38G | 0.08
C3G A39C G44C | 0.11
G1C G2A C8G G30U | 0.03
G22C A25U C31A | 0.16
C3G C10G C31G | 0.02
C3A G19U G30C G35A | 0.47
U20A C31A G40U G44U | 0.02

Variant | self-cleavage
A16G C37A A41C C46A | 0.03
G1U C8U U9C U43G | 0.02
G1U A11C A26U | 0.05
A26G G35U C46G | 0
A26G G36A G44U | 0.13
C8U G27A G44C | 0.01
U9A U20G U34C C45U | 0.09
C8A G17C C42A | 0.09
G22A A25C A39C | 0.11
U20C A26G C37U | 0.02
C8G G17U U28A C42G | 0
G5C G29A G33A | 0.06
C3U G29C U43C | 0.03
G1U C15U C23U | 2.01
G5C C37G U38G | 0.02
G5C U9C C15U | 0.05
C8U U9C U32C | 0.05
U28G C31G U32A | 0.41
A4U A11G G21A | 0.02
A4C C8U C23A | 0.11
G7A C13A A14C | 0.07
A11G G22U U28G | 0.04
G2C C8U U9A C15U G17C A24G | 0.11
